# Laboratory results from the supplement of paper PMC11417369.
# ± gives the standard deviation of the averaged measurements. Some of the results follow.
# Tested on: PfAP2-LT AP2 domain (GST-tagged)
# Test: gcPBM binding intensity (ln(normalized median fluorescence intensity)); higher = stronger DNA binding
# Method in brief: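 GST-tagged P. falciparum DNA-binding domains, expressed in E. coli (about 25 μg on average), were applied for 1 h to an Agilent 4 × 180k array of primer-extended double-stranded 36-bp intergenic genomic probes plus negative controls. The binding buffer was 1× PBS with 1% milk, 0.2 mg/ml BSA, 0.5% salmon testes DNA and 0.03% Triton X-100. Bound protein was detected with Alexa488 anti-GST antibody and scanned at 488 nm. Binding intensity is the highest Masliner-normalised natural-log median intensity across replicate spots of either probe orientation.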
row,Sequence,gcPBM binding intensity (ln)
1,TAATGTTACACAAACTTTTCATTCTTTTTAATAAAT [TGCATGCA_negctrl_site331],8.27 ± 0.49
2,ATATAATTATAAAATAAACACACATATATATTTATA [CACACA_site8039],8.76 ± 0.42
3,TTATTTATTTATAATTGTACATTGCAAATGAATTTA [XGTACX_site4083],8.38 ± 0.42
4,ATATATATATATATATGTACATAGAGAAGTATCTTT [XGTACX_site4737],9.48 ± 0.042
5,ATTTTATAAAGGAAGTGTACTAATAAATTCAAATTA [XGTACX_site3922],8.38 ± 0.59
6,AAAAAAAAAAAAAAATGTACAAATATATACATATAT [XGTACX_site935],8.63 ± 0.4
7,AAGAAAAAATATACTTCACACATTTAATATATAATT [CACACA_site4919],8.55 ± 0.52
8,TCGATGTTGGTAGGATGTACGGTACCGGTAGTATTT [XGTACX_site4214],8.93 ± 0.38
9,AAAAAAGAATTGTGCACACACAAAAAATGTTCATAA [CACACA_site1103],9.19 ± 0.49
10,GATATATTTTATATATGTACATACAAGGGTAAATAT [XGTACX_site1202],8.9 ± 0.42
11,AAAATAAACTATAGTACACACTTATTATTATGAAAT [CACACA_site5488],8.9 ± 0.48
12,TCAATTAGACGAAAATGTACATATGTATATATTTTT [XGTACX_site5027],8.75 ± 0.44
13,AAAATATGTAGCTACACACACATAAACAAAATAACA [CACACA_site1007],9.41 ± 0.3
14,GAAAACAAAATGGTAACACACAAATGTAAATAGTAT [CACACA_site2113],9.36 ± 0.42
15,AAAATAAATAAATACACACACACGAATATTTATATA [CACACA_site6892],9.67 ± 0.13
16,AAAAAAAAAAAAAAAAGTACACATCATTTTATGAAA [XGTACX_site1402],8.45 ± 0.56
17,ATTATAAAAATATCGTGTACATATTTTTTAAAATAA [XGTACX_site5072],8.43 ± 0.42
18,ATTATTTCAATTTTTTTTGTTTTTAAAAAAAAAAAT [CACACA_negctrl_site1387],8.01 ± 0.39
19,TAGTAGTTATCATTAACATGCAATAATATTATTTAA [TGCATGCA_site178],8.53 ± 0.47

row,Sequence,gcPBM binding intensity (ln)
1,ATGAACATATTTTTTTGTACTTATGAAAATATGTTA [XGTACX_site5996],8.49 ± 0.29
2,AAGTTAGGATAGATCCAATAATTTTTAGTTTCTCTT [GTGCAC_negctrl_site272],8.45 ± 0.49
3,AAAAAAAAAAAAAAAAGTACTCTATAAGTAACATTT [XGTACX_site6973],8.47 ± 0.3
4,ATTTTTTTGTTATTGTTGAAAAGATGGTTCTTTTTT [CACACA_negctrl_site1346],8.59 ± 0.39
5,AATTTCTTATTTTGTACACACAATAAATATTCACAT [CACACA_site1612],9.22 ± 0.39
6,GTTATAAAATATGGCACACAAAATGTAAGTAAATGA [CACACA_site1458],9.1 ± 0.54
7,GATCTTTAAATTTATTGTACATAAATGTATATGTTA [XGTACX_site1107],8.71 ± 0.49
8,ATATATTTTGTTATGGTGCGTAAGAAATATATTCTT [GTGCAC_site9825],8.73 ± 0.43
9,TATCACATATTATGATGTACAAGGATTCTGACTAAT [XGTACX_site1196],8.64 ± 0.47
10,TTTATTTATCTGAACACATGCAGACAAATAACATAT [TGCATGCA_site929],8.61 ± 0.4
11,ATTATATATAAACACACACACATGCATGCACATATA [CACACA_site4237],9.76 ± 0.13
12,CATAAACTTTATAACACACACTTATAAATATAAATA [CACACA_site6646],9.04 ± 0.35
13,ATATCTATAATAAACACACACATATACCTATAGGTA [CACACA_site7596],9.26 ± 0.23
14,TATTATATGTATTGCACACCTTCAACAACTACTTCT [CACACA_site655],9.11 ± 0.51
15,GGGCATATAATATAAAGTACAGGACTATAAAAATAT [XGTACX_site4481],8.86 ± 0.59
16,ATTGTGCACTTATATGCACACATTTTAGTTTTTTTT [CACACA_site2028],8.97 ± 0.38
17,TATATATTATAAAATAGTACACAGAATTTAAATATA [XGTACX_site100],8.64 ± 0.41
18,TATATATAGAAACACACACACATATATATATATTTT [CACACA_site2540],9.71 ± 0.12
19,TTGTTGATTGTTATTTATCATTAGATGTAAAATATG [CACACA_negctrl_site927],8.6 ± 0.29

row,Sequence,gcPBM binding intensity (ln)
1,AATATTTTTTTATAAACACACATATAAATAAATATA [CACACA_site7622],8.46 ± 0.35
2,TCTTTTAAACAGTACACACACACATATATATATATA [CACACA_site924],9.89 ± 0.11
3,TTATGAAATAGAATAACACACATATTTATATATGTG [CACACA_site2050],8.93 ± 0.39
4,CATAGAATAATTTATTGTACGTGCATGCTATTTTTT [XGTACX_site8984],9.15 ± 0.38
5,AAACAGAATACATATACACACATACAAAAAAGTGCA [CACACA_site8235],9.31 ± 0.37
6,ATTAAATATATGATGTGTACATATTCGTGTATGTTT [XGTACX_site2141],9.04 ± 0.4
7,TATACATTTTTATAAAGTACACAAAAATAAATATAA [XGTACX_site1647],8.53 ± 0.41
8,AATGCTATCTTCTTATTTTTCATACACAACATGAAC [CACACA_negctrl_site1809],8.99 ± 0.4
9,TATAATATTTATATAACACACATATATATTTATTTA [CACACA_site280],8.64 ± 0.44
10,AAAATAAATTTTTATGTTATATATACAATTTCTCTA [CACACA_negctrl_site1760],8.43 ± 0.45
11,TATTTTTTTAAAAATACACACATAAAATCATGAAAA [CACACA_site1085],8.55 ± 0.47
12,TTTTTTTATATTTTTAGTACACATTGGTATATATAT [XGTACX_site4114],8.86 ± 0.41
13,ATATATATATGTCAAAGTACTAAAAATATATACATA [XGTACX_site3397],8.77 ± 0.44
14,TTATGTTGTAAATACACACATACATATACATACACA [CACACA_site733],9.07 ± 0.3
15,AATAAAATATAATAATTAATATATATATATATATAA [GTGCAC_negctrl_site457],8.65 ± 0.45
16,TATGTGAAATAAGGATGTACAATTTTGATTTCCCCA [XGTACX_site8389],8.77 ± 0.39
17,GTGTACAAAATATGGTAATAAAGTAGTTACATGAAT [CACACA_negctrl_site1775],9.08 ± 0.47
18,CTAAATTGTTAATAGAGTACATTTGTATAATATAAG [XGTACX_site594],8.54 ± 0.49
